Assay results as given in article PMC5766566, “Characterization of human small heat shock protein HSPB1 α-crystallin domain localized mutants associated with hereditary motor neuron diseases” (Scientific Reports, 2018).

Legend:
[1] = molecular target: the molecule itself; experiment: SEC; Superdex 200 HR in buffer S; HSPB1 variants loaded at 0.7–1.0 mg/ml after phosphorylation by MAPKAPK-2 to 0.9–1.0 mole phosphate per mole of protein or above
[2] = molecular target: the molecule itself; experiment: SEC-coupled SAXS; 80 μl at 5 mg/ml (220 µM monomer) on Shodex KW404-F in 50 mM phosphate pH 7.5, 100 mM NaCl, 2.5 mM DTT; number of subunits from the mass at the elution peak (I0 against water)

Row | Protein | stoichiometry N [1] | stoichiometry N [2] [subunits]
1 | human HSPB1 R136W mutant, phosphorylated by MAPKAPK-2 (natural protein, phosphoserine at the MAPKAPK-2 sites S15, S78 and S82, to 0.9–1.0 mole phosphate per mole of protein or above, HSPB1 (HSP27), human, with the disease mutation R136W; also called phosphorylated R136W) not shown | 2 | 
2 | human HSPB1 R127W mutant (natural protein, HSPB1 (HSP27), human, with the autosomal dominant Charcot-Marie-Tooth mutation R127W; Disease mutation found in patients; Probably the whole protein; SUMO carrier probably removed (subtractive IMAC); source: recombinant (pET23b or pETHSUK construct), expressed as described earlier) not shown |  | 38
3 | human HSPB1 R136W mutant (natural protein, HSPB1 (HSP27), human, with the autosomal dominant Charcot-Marie-Tooth mutation R136W; Disease mutation found in patients; Probably the whole protein; SUMO carrier probably removed (subtractive IMAC); source: recombinant (pET23b or pETHSUK construct), expressed as described earlier; purified (ammonium sulfate fractionation, anion-exchange, SEC; or subtractive IMAC, anion-exchange, SEC)) not shown |  | 41
4 | human HSPB1 S135F mutant (natural protein, HSPB1 (HSP27), human, with the autosomal dominant Charcot-Marie-Tooth mutation S135F; Disease mutation found in patients; Probably the whole protein; SUMO carrier probably removed (subtractive IMAC); The abstract once prints R135F for this mutant; source: recombinant (pET23b or pETHSUK construct), expressed as described earlier; purified (ammonium sulfate fractionation, anion-exchange, SEC; or …)) not shown |  | 40
5 | human HSPB1 R127W mutant, phosphorylated by MAPKAPK-2 (natural protein, phosphoserine at the MAPKAPK-2 sites S15, S78 and S82, to 0.9–1.0 mole phosphate per mole of protein or above, HSPB1 (HSP27), human, with the disease mutation R127W; also called phosphorylated R127W) not shown | 2 | 
6 | human HSPB1 S135F mutant, phosphorylated by MAPKAPK-2 (natural protein, phosphoserine at the MAPKAPK-2 sites S15, S78 and S82, to 0.9–1.0 mole phosphate per mole of protein or above, HSPB1 (HSP27), human, with the disease mutation S135F; also called phosphorylated S135F) not shown | 2 | 
